Target: T1, peptide substrate MCA-…(Dnp)-OH (R&D Systems Cat. No. ES005)
T1 chain: RPPGFSAFK
Assay: cell-based or functional assay

- Km [µM] (apparent Km, hydrolysis of fluorogenic peptide substrate): 3.8 µM
B1: trifunctional polypeptide TriGant (bispecific antibody)
heavy 1: QVELVESGGGLVQPGGSLRLSCAASGFTFSSYAMSWVRQAPGKGLEWVSAINASGTRTYYADSVKGRFTISRDNSKNTLYLQMNSLRAEDTAVYYCARGKGNTHKPYGYVRYFDVWGQGTLVTVSSASTKGPSVFPLAPSSKSTSGGTAALGCLVKDYFPEPVTVSWNSGALTSGVHTFPAVLQSSGLYSLSSVVTVPSSSLGTQTYICNVNHKPSNTKVDKKV[human IgG1 Fc with changes cut from this listing]GGSGGGGSGGGGSGGGGSDIQMTQSPASLSASLEEIVTITCQASQDIGNWLAWYQQKPGKSPQLLIYGATSLADGVPSRFSGSRSGTQFSLKISRVQVEDIGIYYCLQAYNTPWTFGGGTKVEIKRTVAAPSVFIFPPSDEQLKSGTASVVCLLNNFYPREAKVQWKVDNALQSGNSQESVTEQDSKDSTYSLSSTLTLSKADYEKHKVYACEVTHQGLSSPVTKSFNRGECGGGGSGGGGSGGGGSGGGGSGGGGSGGGGSGGEVQLVESGGGLVQPGNSLTLSCVASGFTFSNYGMHWIRQAPKKGLEWIAMIYYDSSKMNYADTVKGRFTISRDNSKNTLYLEMNSLRSEDTAMYYCAVPTSHYVVDVWGQGVSVTVSSASTKGPSVFPLAPSSKSTSGGTAALGCLVKDYFPEPVTVSWNSGALTSGVHTFPAVLQSSGLYSLSSVVTVPSSSLGTQTYICNVNHKPSNTKVDKKVEPKSC
heavy 2: QVELVESGGGLVQPGGSLRLSCAASGFTFSSYAMSWVRQAPGKGLEWVSAINASGTRTYYADSVKGRFTISRDNSKNTLYLQMNSLRAEDTAVYYCARGKGNTHKPYGYVRYFDVWGQGTLVTVSSASTKGPSVFPLAPSSKSTSGGTAALGCLVKDYFPEPVTVSWNSGALTSGVHTFPAVLQSSGLYSLSSVVTVPSSSLGTQTYICNVNHKPSNTKVDKKV[human IgG1 Fc with changes cut from this listing]GGSGGGGSGGGGSYDDGICKSSDCIKSAARLIQNMDATTEPCTDFFKYACGGWLKRNVIPETSSRYGNFDILRDELEVVLKDVLQEPKTEDIVAVQKAKALYRSCINESAIDSRGGEPLLKLLPDIYGWPVATENWEQKYGASWTAEKAIAQLNSKYGKKVLINLFVGTDDKNSVNHVIHIDQPRLGLPSRDYYECTGIYKEACTAYVDFMISVARLIRQEERLPIDENQLALEMNKVMELEKEIANATAKPEDRNDPMLLYNKMTLAQIQNNFSLEINGKPFSWLNFTNEIMSTVNISITNEEDVVVYAPEYLTKLKPILTKYSARDLQNLMSWRFIMDLVSSLSRTYKESRNAFRKALYGTTSETATWRRCANYVNGNMENAVGRLYVEAAFAGESKHVVEDLIAQIREVFIQTLDDLTWMDAETKKRAEEKALAIKERIGYPDDIVSNDNKLNNEYLELNYKEDEYFENIIQNLKFSQSKQLKKLREKVDKDEWISGAAVVNAFYSSGRNQIVFPAGILQPPFFSAQQSNSLNYGGIGMVIGHEITHGFDDNGRNFNKDGDLVDWWTQQSASNFKEQSQCMVYQYGNFSWDLAGGQHLNGINTLGENIADNGGLGQAYRAYQNYIKKNGEEKLLPGLDLNHKQLFFLNFAQVWCGTYRPEYAVNSIKTDVHSPGNFRIIGTLQNSAEFSEAFHCRKNSYMNPEKKCRVW
light: DIVLTQSPATLSLSPGERATLSCRASQSVSSSYLAWYQQKPGQAPRLLIYGASSRATGVPARFSGSGSGTDFTLTISSLEPEDFATYYCLQIYNMPITFGQGTKVEIKRTVAAPSVFIFPPSDEQLKSGTASVVCLLNNFYPREAKVQWKVDNALQSGNSQESVTEQDSKDSTYSLSSTLTLSKADYEKHKVYACEVTHQGLSSPVTKSFNRGEC
modifications: here or on the partner: N-terminal MCA; Dnp on the C-terminal Lys (K9)

— patent US20160168253A1
